# Results published in PubChem BioAssay AID588342 (National Center for Advancing Translational Sciences (NCATS), 2011).
# The whole screen tested about 360,000 compounds, of which about 25,000 (6.9%) were called active. Inconclusive means that the source gave no clear call. Such entries were picked first, then a sample of the others. Calls come from the whole dose curve; as a rule, active = well fitted inhibition curve with a large enough effect; inconclusive = small, poorly fitted or top-dose-only effect; inactive = flat fitted curve, though single readings scatter. Potencies of inconclusive entries are doubtful fits and often do not repeat.
# Target: Luciferin 4-monooxygenase (Photinus pyralis) (UniProt P08659)
# Experiment: qHTS profiling assay for firefly luciferase inhibitor/activator using purifed enzyme and Km concentrations of substrates (counterscreen for miR-21 project); note: nearly all actives have a fitted effect of over 55% in size;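 for activity change, negative = inhibition: plate controls were vehicle for no effect and reference inhibitor for full effect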
# Settings: purified FLuc, luminescence inhibition; activity change, negative = inhibition: at 57.5 µM (top of the series)
# How it was run: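 Biochemical qHTS of compounds, final roughly 60 µM downward over six points, against 10 nM purified firefly luciferase using Km concentrations of substrates (10 uM D-luciferin, 10 uM ATP) in Tris acetate pH 7.5 buffer; luminescence output.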
# Potency is the fitted concentration of half-maximal effect; tags give direction and shape of the fitted curve.
# Sequence of UniProt P08659 (P08659 whole entry, looked up): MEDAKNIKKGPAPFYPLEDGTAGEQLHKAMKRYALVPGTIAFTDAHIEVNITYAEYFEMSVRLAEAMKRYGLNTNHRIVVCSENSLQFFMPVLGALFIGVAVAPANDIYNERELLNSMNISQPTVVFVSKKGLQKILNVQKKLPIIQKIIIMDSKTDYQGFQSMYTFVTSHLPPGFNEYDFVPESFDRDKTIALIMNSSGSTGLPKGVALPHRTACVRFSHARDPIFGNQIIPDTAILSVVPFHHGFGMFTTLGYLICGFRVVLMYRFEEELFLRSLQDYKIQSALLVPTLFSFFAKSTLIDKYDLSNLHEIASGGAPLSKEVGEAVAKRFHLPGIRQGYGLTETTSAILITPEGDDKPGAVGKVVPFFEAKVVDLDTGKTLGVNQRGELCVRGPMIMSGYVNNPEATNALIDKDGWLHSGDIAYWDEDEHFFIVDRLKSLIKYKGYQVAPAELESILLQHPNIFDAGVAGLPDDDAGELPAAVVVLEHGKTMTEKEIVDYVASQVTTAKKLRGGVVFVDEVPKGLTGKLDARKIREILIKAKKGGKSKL
SMILES,Potency,"activity change, negative = inhibition"
CC(=O)NCCc1nc2cc(NC(=O)c3cccs3)ccc2n1C,"inconclusive: 15.1 µM [inhibitor, partial curve]",–
CCOC(=O)Cn1nc(-c2ccccc2)nc1-c1ccccc1,"inconclusive: 26.9 µM [inhibitor, partial curve, poor fit]",–
Cn1c(=O)c(C(=O)COC(=O)c2cc(-c3ccco3)nc3ccccc23)c(N)n(Cc2ccccc2)c1=O,"inconclusive: 9.53 µM [inhibitor, partial curve, poor fit]",–
CCOC(=O)c1ccc(NC(=O)c2cccc(C)c2[N+](=O)[O-])cc1,"inconclusive: 23.9 µM [inhibitor, partial curve, poor fit]",–
COc1ccc(-c2csc(NC(=S)NC(=O)c3cccs3)n2)cc1OC,"inconclusive: 21.3 µM [inhibitor, partial curve]",–
O=[N+]([O-])c1ccccc1N/N=C/c1ccccc1,"inconclusive: 0.849 µM [inhibitor, full curve]",–
CC1(C)C2CCC1(CS(=O)(=O)NCc1ccc(S(N)(=O)=O)cc1)C(=O)C2 (centres undefined),–,inactive: 0.331%
Cc1ccc(NC(=O)c2sc3ccccc3c2Cl)cc1,active: 1.2 µM,–
O=C(NCc1ccco1)c1cc(-c2ccco2)on1,"inconclusive: 19 µM [inhibitor, single point]",–
COc1ccc2oc(CS(=O)c3ccccc3)c(C(=O)O)c2c1 (centres undefined),"inconclusive: 26.9 µM [inhibitor, partial curve, poor fit]",–
O=C(Nc1ccc(Cl)c(Cl)c1)N1N=CCC1c1ccccc1 (centres undefined),"inconclusive: 37.9 µM [inhibitor, partial curve, poor fit]",–
COc1ccc(NC(=O)c2ccco2)cc1N,"inconclusive: 26.9 µM [inhibitor, partial curve]",–
O=C(C1CCN(S(=O)(=O)c2ccccc2)CC1)N1CCN(Cc2ccccc2)CC1,–,inactive: -1.31%
COc1ccc2oc(C(=O)N3CCCc4ccccc43)c(C)c2c1,active: 19 µM,–
COCc1ccc(C(=O)Nc2ccc(C(=O)O)cc2)o1,"inconclusive: 16.9 µM [inhibitor, partial curve]",–
O=C(O)c1cccc(Cn2c(Cl)c(/C=N/Nc3ccccc3)sc2=O)c1,active: 26.9 µM,–
Cc1cccc(/C=C/c2onc(C)c2S(=O)(=O)N2CCC(C(=O)N3CCC(C)CC3)CC2)c1,inactive,–
FC(F)(F)c1ccccc1-n1ccnc1,–,inactive: 5.53%
Cc1cc2nc(-c3ccc(SCC(=O)Nc4nccs4)nc3)[nH]c2cc1C,"inconclusive: 0.151 µM [inhibitor, full curve, poor fit]",–
Cc1ccc(NC(=O)c2cccc(S(=O)(=O)N3CCCC3)c2)nc1,"inconclusive: 30.1 µM [inhibitor, single point]",–
O=C(Nc1ccc2c(c1)OCCO2)C1CCN(S(=O)(=O)c2ccc3c(c2)OCCO3)CC1,"inconclusive: 37.9 µM [inhibitor, partial curve, poor fit]",–
CCN(CC)C(=O)c1ccc2nc3ccccc3nc2c1,"inconclusive: 37.9 µM [inhibitor, single point]",–
COc1ccccc1C(=O)Nc1ccc2c(c1)nc1n2CCN(Cc2ccccc2)C1,"inconclusive: 30.1 µM [inhibitor, partial curve, poor fit]",–

SMILES,Potency,"activity change, negative = inhibition"
CS(=O)(=O)N1CCN(c2nc3ccccc3s2)CC1,"inconclusive: 21.3 µM [inhibitor, partial curve]",–
COC(=O)Cn1c2ccccc2c2nc3ccccc3nc21,"inconclusive: 4.78 µM [inhibitor, partial curve, poor fit]",–
COc1ccc(-c2nc3n(n2)C(=O)CC(c2ccco2)S3)cc1 (centres undefined),"inconclusive: 26.9 µM [inhibitor, partial curve, poor fit]",–
COc1ccc(-n2nc3ccc(NC(=O)c4cc5ccccc5o4)cc3n2)cc1Cl,–,inactive: -4.56%
CCS(=O)(=O)C1=NSC2=NC(=O)/C(=C\c3ccc(OS(=O)(=O)c4ccccc4)c(OC)c3)C(=N)N21,"inconclusive: 30.1 µM [inhibitor, partial curve, poor fit]",–
CCC(CC)C(=O)Nc1cccc(-c2nc3cccnc3s2)c1C,"inconclusive: 4.78 µM [inhibitor, full curve]",–
CCOc1cc(C2C(C(=O)OC)=C(C)NC3=C2C(=O)c2ccccc23)ccc1O (centres undefined),"inconclusive: 37.9 µM [inhibitor, partial curve, poor fit]",–
CCOc1ccccc1Nc1nc2ccccc2[nH]1,"inconclusive: 26.9 µM [inhibitor, single point]",–
O=C(O)CCCCCNc1nc(-c2ccccc2)nc2ccccc12,"inconclusive: 37.9 µM [inhibitor, partial curve, poor fit]",–
CC(C)(C)C1CCC(=NNC(=S)NCc2ccccc2)CC1 (centres undefined),"inconclusive: 26.9 µM [inhibitor, partial curve, poor fit]",–
CC(=O)NCCC(=O)N1CCc2c([nH]c3ccccc23)C1c1cccc(C)c1 (centres undefined),"inconclusive: 37.9 µM [inhibitor, partial curve, poor fit]",–
Cc1ccc(C(=O)NCCC(=O)N2CCOCC2)cc1,active: 10.7 µM,–
CCCc1noc2c1/C(=N\O)CC(CC(C)SCC)C2 (centres undefined),"inconclusive: 23.9 µM [inhibitor, partial curve, poor fit]",–
COc1ccccc1-n1c(=S)[nH]c2c(sc(=S)n2-c2ccccc2)c1=O,"inconclusive: 15.1 µM [inhibitor, partial curve]",–
CCOC(=O)c1c(C)oc2c1cc(NS(=O)(=O)c1ccc(C(=O)O)cc1)c1ccccc12,"inconclusive: 26.9 µM [inhibitor, single point]",–
O=C1c2ccccc2C(=O)N1c1ncc(Cc2ccc(Cl)cc2)s1,–,inactive: -14.3%
CCOC(=O)c1ccc(-n2c(N)c(C(=O)OC)c3nc4ccccc4nc32)cc1,–,inactive: 2.97%
O=C(N/N=C\c1cccc(F)c1)c1ccc(Cn2cc(Br)c([N+](=O)[O-])n2)o1,"inconclusive: 6.75 µM [inhibitor, full curve]",–
Cc1ccc2nc(-c3ccccc3)cc(C(=O)NCCCn3ccnc3)c2c1,active: 21.3 µM,–
Cc1ccc2nc(SCC(=O)c3c[nH]c4ccccc34)[nH]c2c1,"inconclusive: 13.5 µM [inhibitor, partial curve, poor fit]",–
Cc1ccc(-n2nc3c(=O)n(CC(=O)Nc4ccccc4F)nc(C)c3c2C)c(C)c1,–,inactive: -11.3%
Cc1ccc(C(=O)NC(=S)NNC(=O)c2ccccc2O)cc1,"inconclusive: 23.9 µM [inhibitor, single point]",–
CC(=O)c1cc2c(cc1NC(=O)Cn1nc(C)c(C)c(C#N)c1=O)OCO2,–,inactive: 7.37%

SMILES,Potency,"activity change, negative = inhibition"
O=C(Nc1ccc2oc(-c3cccc4ccccc34)nc2c1)c1ncn[nH]1,"inconclusive: 3.01 µM [inhibitor, full curve]",–
Cc1cc(NS(=O)(=O)c2ccc(NC(=O)COc3ccc(Cl)cc3)cc2)nc(C)n1,"inconclusive: 23.9 µM [inhibitor, partial curve]",–
Cc1ccc(/C(N)=N/OC(=O)CCCc2ccccc2)cc1,"inconclusive: 26.9 µM [inhibitor, single point]",–
Cc1cccc(-n2ncc3c(NCCN4CCOCC4)ncnc32)c1,"inconclusive: 37.9 µM [inhibitor, partial curve, poor fit]",–
COc1ccc(-c2cc(C(=O)N3CCN(c4ncccn4)CC3)c3ccccc3n2)c(OC)c1,"inconclusive: 26.9 µM [inhibitor, single point]",–
CN(Cc1ccn[nH]1)C(=O)C1CCC(=O)N(Cc2cccc(C(F)(F)F)c2)C1 (centres undefined),–,inactive: 3.88%
COc1ccc(-n2sc3ccc(F)cc3c2=O)cc1,"inconclusive: 20 µM [inhibitor, partial curve, poor fit]",–
Cc1cc(O)c(-c2cc(C(=O)Nc3cccnc3)[nH]n2)cc1C,active: 1.9 µM,–
O=C(Cn1c(=O)oc2ccccc21)NCc1cccc(Cl)c1,–,inactive: 0.921%
COc1ccc(OC)c(C2CC(=O)N3CN(c4ccccc4F)CSC3=C2C#N)c1 (centres undefined),"inconclusive: 37.9 µM [inhibitor, single point]",–
Cc1ccc(C(=O)CCc2ccc(N)cc2)cc1,"inconclusive: 21.3 µM [inhibitor, partial curve]",–
O=C1C(=Nc2cccc(Cl)c2)CC(c2ccc(Cl)cc2)N1c1cccc(Cl)c1 (centres undefined),–,inactive: 1.06%
O=C(Cn1c(=O)[nH]c2ccccc2c1=O)N1CCN(Cc2ccc3c(c2)OCO3)CC1,–,inactive: 1.16%
Cc1ccc(N(Cc2ccc(C(=O)NCCSc3ccccn3)cc2)S(C)(=O)=O)cc1C,–,inactive: -1.74%
Cc1cccc(CCNC(=O)c2cc3ccccn3n2)c1,"inconclusive: 16.9 µM [inhibitor, partial curve]",–
Cc1cc(C)cc(N(CC(=O)Nc2cccc(C)c2C)S(=O)(=O)c2c(C)[nH]c(=O)[nH]c2=O)c1,"inconclusive: 15.1 µM [inhibitor, partial curve, poor fit]",–
CN(C)/C=C/C(=O)c1cccc([N+](=O)[O-])c1,–,inactive: 0.0043%
CCOc1ccc2nc(N3CCC(C(=O)NC4CCCCC4)CC3)sc2c1,"inconclusive: 1.9 µM [inhibitor, full curve]",–
COc1ccccc1Nc1ccc2nonc2c1[N+](=O)[O-],–,inactive: -2.9%
CC(C)CC(=O)NNC(=O)C(C)C,–,inactive: 1.78%
O=C(N/N=C/c1c[nH]c2ccccc12)c1ccc(Br)cc1,active: 6.75 µM,–
O=C(Nc1sc2c(c1C(=O)O)CCCC2)c1ccccc1Cl,"inconclusive: 37.9 µM [inhibitor, single point]",–
COc1ccccc1NC(=O)c1c(NCc2sccc2C)sc2c1CCCCC2,"inconclusive: 15.1 µM [inhibitor, partial curve]",–
